# The supplement of paper PMC8728848
# Some of the results follow.
# B1: B160 (Bifidobacterium sp) (protein)
# chain: MVSHNKRIVAALAAVAAMGIGLAGCGGSDTAGDTKSGSDGGVVNITYMHRLPDSEGMTLVNDIVAKWNKEHPNIQVKATKFDGNAADMIKKLETDVKAGNAPDLAQVGYAEVPEVFTKGLLQDVTDEAAKYKDDFASGPFALMQVDGKTYGLPQDTGPLTYFYNAAEFEKLGITVPKTADELIETAKKTAAQGKYIMTFTPDEAMMMMSGQAGASGPWYKVDGNSWVVNTQTKGSKAVADVYQQLIDNKAALTNPRWDASFDNSIQSGQLIGTVAAAWEAPLFIDSAGGTGAGEWKVTQLGDWFGNGTKTGANGGSGVAVLKGSKHPAEAMEFLDWFNTQVDDLVSQGLVVAATTADAKTPQKWSDYFSGQDVMAEFKTANDNMGDFTYMPGFSAVGAAMKQTAAKAADGSAKVSDVFDTAQKTSVDTLKNLGLSVKE
# Key:
# Test in all cases: glycan array binding signal (z-score within array); higher = stronger binding
# Conditions in all cases: glycan notation: IUPAC condensed, linker removed
# [1] = target: Neu5Ac(a2-6)Gal(b1-4)GlcNAc(b1-3)Gal(b1-4)GlcNAc(b1-3)GalNAc
# Method in brief: (§1)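 The binding signal is a Z-score computed within each array. Data were drawn from 3228 arrays in the Consortium for Functional Glycomics database, restricted to those with a known protein sequence. Scores were averaged over arrays of the same protein sequence at different concentrations or buffers, and over linkers, and negative values can be taken as non-binding.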
# [2] = target: Neu5Ac(a2-6)Gal(b1-4)GlcNAc(b1-3)Gal(b1-4)GlcNAc(b1-3)[Neu5Ac(a2-6)Gal(b1-4)GlcNAc(b1-3)Gal(b1-4)GlcNAc(b1-6)]GalNAc
# Method in brief: as §1
# [3] = target: Neu5Ac(a2-6)Gal(b1-4)GlcNAc(b1-3)Gal(b1-4)GlcNAc(b1-6)[Gal(b1-3)]GalNAc
# Method in brief: as §1
# [4] = target: Neu5Ac(a2-6)Gal(b1-4)GlcNAc(b1-3)Gal(b1-4)[Fuc(a1-3)]GlcNAc(b1-3)Gal(b1-4)[Fuc(a1-3)]GlcNAc
# Method in brief: as §1
# [5] = target: Neu5Ac(a2-6)Gal(b1-4)GlcNAc(b1-3)GalNAc
# Method in brief: as §1
# [6] = target: Neu5Ac(a2-6)Gal(b1-4)GlcNAc(b1-3)[Neu5Ac(a2-6)Gal(b1-4)GlcNAc(b1-6)]GalNAc
# Method in brief: as §1
# [7] = target: Neu5Ac(a2-6)Gal(b1-4)GlcNAc(b1-6)GalNAc
# Method in brief: as §1
# [8] = target: Neu5Ac(a2-6)Gal(b1-4)GlcNAc(b1-6)[Gal(b1-3)GlcNAc(b1-3)]Gal(b1-4)Glc
# Method in brief: as §1
# [9] = target: Neu5Ac(a2-6)Gal(b1-4)GlcNAc(b1-6)[Gal(b1-3)]GalNAc
# Method in brief: as §1
# [10] = target: Neu5Ac(a2-6)Gal(b1-4)GlcNAc6S
# Method in brief: as §1
# Neu5Ac(a2-6)GalNAc = target: Neu5Ac(a2-6)GalNAc
# Method in brief: as §1
# [11] = target: Neu5Ac(a2-6)GalNAc(b1-4)GlcNAc
# Method in brief: as §1
# [12] = target: Neu5Ac(a2-6)GalNAc(b1-4)GlcNAc6S
# Method in brief: as §1
# [13] = target: Neu5Ac(a2-6)GlcNAc(b1-4)GlcNAc
# Method in brief: as §1
# [14] = target: Neu5Ac(a2-6)GlcNAc(b1-4)GlcNAc(b1-4)GlcNAc
# Method in brief: as §1
# Neu5Ac(a2-8)Neu5Ac = target: Neu5Ac(a2-8)Neu5Ac
# Method in brief: as §1
# [15] = target: Neu5Ac(a2-8)Neu5Ac(a2-3)Gal(b1-3)GalNAc(b1-4)[Neu5Ac(a2-3)]Gal(b1-4)Glc
# Method in brief: as §1
# [16] = target: Neu5Ac(a2-8)Neu5Ac(a2-3)Gal(b1-3)GalNAc(b1-4)[Neu5Ac(a2-8)Neu5Ac(a2-3)]Gal(b1-4)Glc
# Method in brief: as §1
# [17] = target: Neu5Ac(a2-8)Neu5Ac(a2-3)Gal(b1-4)Glc
# Method in brief: as §1
# [18] = target: Neu5Ac(a2-8)Neu5Ac(a2-3)Gal(b1-4)GlcNAc
# Method in brief: as §1
# [19] = target: Neu5Ac(a2-8)Neu5Ac(a2-3)[Gal(b1-3)GalNAc(b1-4)]Gal(b1-4)Glc
# Method in brief: as §1
# [20] = target: Neu5Ac(a2-8)Neu5Ac(a2-3)[GalNAc(b1-4)]Gal(b1-4)Glc
# Method in brief: as §1
# [21] = target: Neu5Ac(a2-8)Neu5Ac(a2-8)Neu5Ac
# Method in brief: as §1
# [22] = target: Neu5Ac(a2-8)Neu5Ac(a2-8)Neu5Ac(a2-3)Gal(b1-4)Glc
# Method in brief: as §1
# [23] = target: Neu5Ac(a2-8)Neu5Ac(a2-8)Neu5Ac(a2-3)[Gal(b1-3)GalNAc(b1-4)]Gal(b1-4)Glc
# Method in brief: as §1
# [24] = target: Neu5Ac(a2-8)Neu5Ac(a2-8)Neu5Ac(a2-3)[GalNAc(b1-4)]Gal(b1-4)Glc
# Method in brief: as §1
# [25] = target: Neu5Ac(a2-8)Neu5Ac(a2-8)Neu5Ac(a2-8)Neu5Ac(a2-3)[GalNAc(b1-4)]Gal(b1-4)Glc
# Method in brief: as §1
# [26] = target: Neu5Ac(a2-8)Neu5Gc(a2-3)Gal(b1-4)GlcNAc
# Method in brief: as §1
# [27] = target: Neu5Ac(b2-6)Gal(b1-4)GlcNAc
# Method in brief: as §1
# Neu5Ac(b2-6)GalNAc = target: Neu5Ac(b2-6)GalNAc
# Method in brief: as §1
# [28] = target: Neu5Ac9Ac(a2-3)Gal(b1-3)GlcNAc
# Method in brief: as §1
# [29] = target: Neu5Ac9Ac(a2-3)Gal(b1-4)GlcNAc
# Method in brief: as §1
# [30] = target: Neu5Ac9Ac(a2-6)Gal(b1-4)GlcNAc
# Method in brief: as §1
# [31] = target: Neu5Gc(a2-3)Gal(b1-3)GlcNAc
# Method in brief: as §1
# [32] = target: Neu5Gc(a2-3)Gal(b1-3)[Fuc(a1-4)]GlcNAc
# Method in brief: as §1
# Neu5Gc(a2-3)Gal(b1-4)Glc = target: Neu5Gc(a2-3)Gal(b1-4)Glc
# Method in brief: as §1
# [33] = target: Neu5Gc(a2-3)Gal(b1-4)GlcNAc
# Method in brief: as §1
# [34] = target: Neu5Gc(a2-3)Gal(b1-4)GlcNAc(b1-3)Gal(b1-4)GlcNAc(b1-2)Man(a1-3)[Neu5Gc(a2-3)Gal(b1-4)GlcNAc(b1-3)Gal(b1-4)GlcNAc(b1-2)Man(a1-6)]Man(b1-4)GlcNAc(b1-4)GlcNAc
# Method in brief: as §1
# [35] = target: Neu5Gc(a2-3)Gal(b1-4)[Fuc(a1-3)]GlcNAc
# Method in brief: as §1
# [36] = target: Neu5Gc(a2-6)Gal(b1-4)GlcNAc
# Method in brief: as §1
# Neu5Gc(a2-6)GalNAc = target: Neu5Gc(a2-6)GalNAc
# Method in brief: as §1
# [37] = target: Neu5Gc(a2-8)Neu5Ac(a2-3)Gal(b1-4)GlcNAc
# Method in brief: as §1
# [38] = target: Neu5Gc(a2-8)Neu5Gc(a2-3)Gal(b1-4)GlcNAc
# Method in brief: as §1
# [39] = target: Neu5Gc(a2-8)Neu5Gc(a2-3)Gal(b1-4)GlcNAc(b1-3)Gal(b1-4)GlcNAc
# Method in brief: as §1
# [40] = target: Neu5Gc(a2-8)Neu5Gc(a2-6)Gal(b1-4)GlcNAc
# Method in brief: as §1
# [41] = target: Neu5Gc(b2-6)Gal(b1-4)GlcNAc
# Method in brief: as §1
binder,measurement,setting,value
B1,glycan array binding signal (z-score),[1],-0.192
same,glycan array binding signal (z-score),[2],-0.125
same,glycan array binding signal (z-score),[3],-0.105
same,glycan array binding signal (z-score),[4],-0.147
same,glycan array binding signal (z-score),[5],-0.155
same,glycan array binding signal (z-score),[6],-0.144
same,glycan array binding signal (z-score),[7],-0.135
same,glycan array binding signal (z-score),[8],-0.178
same,glycan array binding signal (z-score),[9],-0.169
same,glycan array binding signal (z-score),[10],-0.187
same,glycan array binding signal (z-score),Neu5Ac(a2-6)GalNAc,-0.174
same,glycan array binding signal (z-score),[11],-0.167
same,glycan array binding signal (z-score),[12],-0.122
same,glycan array binding signal (z-score),[13],-0.175
same,glycan array binding signal (z-score),[14],-0.17
same,glycan array binding signal (z-score),Neu5Ac(a2-8)Neu5Ac,-0.174
same,glycan array binding signal (z-score),[15],-0.172
same,glycan array binding signal (z-score),[16],-0.133
same,glycan array binding signal (z-score),[17],-0.183
same,glycan array binding signal (z-score),[18],-0.182
same,glycan array binding signal (z-score),[19],-0.149
same,glycan array binding signal (z-score),[20],-0.159
same,glycan array binding signal (z-score),[21],-0.167
same,glycan array binding signal (z-score),[22],-0.164
same,glycan array binding signal (z-score),[23],-0.173
same,glycan array binding signal (z-score),[24],-0.183
same,glycan array binding signal (z-score),[25],-0.144
same,glycan array binding signal (z-score),[26],-0.179
same,glycan array binding signal (z-score),[27],-0.186
same,glycan array binding signal (z-score),Neu5Ac(b2-6)GalNAc,-0.196
same,glycan array binding signal (z-score),[28],-0.18
same,glycan array binding signal (z-score),[29],-0.176
same,glycan array binding signal (z-score),[30],-0.181
same,glycan array binding signal (z-score),[31],-0.189
same,glycan array binding signal (z-score),[32],-0.124
same,glycan array binding signal (z-score),Neu5Gc(a2-3)Gal(b1-4)Glc,-0.158
same,glycan array binding signal (z-score),[33],-0.174
same,glycan array binding signal (z-score),[34],-0.16
same,glycan array binding signal (z-score),[35],-0.174
same,glycan array binding signal (z-score),[36],-0.165
same,glycan array binding signal (z-score),Neu5Gc(a2-6)GalNAc,-0.16
same,glycan array binding signal (z-score),[37],-0.171
same,glycan array binding signal (z-score),[38],-0.208
same,glycan array binding signal (z-score),[39],-0.175
same,glycan array binding signal (z-score),[40],-0.167
same,glycan array binding signal (z-score),[41],-0.161
